# Values joined by “and” are separate entries in the source; they are usually repeats but may differ in a detail not shown here. Equal entries are not always repeated. Inconclusive means that the source gave no clear call. Such entries were picked first, then a sample of the others. Where the call is inconclusive, the potency comes from a doubtful curve fit. More than one record can exist for a structure, and the calls need not agree. Active and inactive are the calls of the source. Unless noted, the call rests on the fitted dose curve; in most records, active means well fitted curve in the direction sought with a large enough effect in the repeat runs; inconclusive means weak or mixed curves; inactive means no such curve, though single readings can be large; an effect the other way counts as inactive or inconclusive.
# Columns and labels:
# [1] = target: Nuclear receptor subfamily 1 group I member 3 (Homo sapiens) (UniProt Q14994); experiment: qHTS assay to identify small molecule antagonists of the constitutive androstane receptor (CAR) signaling pathway (AID 1224838);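 further: HepG2 cells stably expressing hCAR with CYP2B6 luciferase reporter stimulated by CITCO; nearly all actives have a fitted effect of over 40% in size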
# Method in brief: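 Human hepatoma HepG2 cells expressing hCAR and a CYP2B6 promoter (2.2 kb) luciferase construct; compound titration (15 points) with 50 nM CITCO final, 24 h at 37 C/5% CO2; luminescence via ONE-Glo after 30 min at room temperature.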
# [2] = qHTS assay to identify small molecule antagonists of the estrogen related receptor signaling pathway with the pleiotropic PPARgamma coactivator (PGC) from Tox21 10K library - cell viability counter screen (AID 1224840; active means well fitted cell-killing curve with a large enough effect in the repeat runs, not every such curve was filed as active; inconclusive means weak or mixed curves, or effect the other way; inactive means no such curve, though single readings can be large or run the other way; further: nearly all actives have a fitted effect of over 40% in size)
# Method in brief: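 Seeded PGC/ERR cells (2,000/well, 6 h, 37 C/5% CO2) get compound by pin tool; 17.5 h incubation at 37 C; CellTiter-Fluor added, 30 min, fluorescence measured.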
# [3] = target: Thyrotropin receptor (Homo sapiens) (UniProt P16473); experiment: qHTS assay to identify small molecule agonists of the thyroid stimulating hormone receptor (TSHR) signaling pathway (AID 1224843; calls by dose curve; further: nearly all actives have a fitted effect of over 45% in size; on activation: on the % scale 0 is the no-effect control and ±100 the full control effect); settings: TSHR-HEK293 cells, cAMP HTRF, agonist mode, 30 min; activation: at 92.4 µM (top of the series) unless noted
# Method in brief: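 HEK293/TSHR, 800 cells/well; cpd 30 min RT; add cAMP-d2 + anti-cAMP-cryptate, 1 h RT; fluorescence read on plate reader. 15-pt titration, n=3.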
# [4] = qHTS assay to identify small molecule agonists of the hypoxia (HIF-1) signaling pathway - cell viability counter screen (AID 1224844; calls by dose curve; further: nearly all actives have a fitted effect of over 50% in size)
# Method in brief: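 HRE-bla ME-180; 0.5% dFBS; cpd 17 h, 37C, 5% CO2; CellTiter-Glo lum., 30 min RT, post-FRET read, same wells.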
# [5] = qHTS assay to identify small molecule agonists of H2AX (AID 1224845; active means well fitted activation curve with a large enough effect in the signal ratio in the repeat runs, not every such curve was filed as active; inconclusive means weak or mixed curves; the % refers to the signal ratio; on activation (H2AX phosphorylation): on the % scale 0 is the no-effect control and ±100 the full control effect); settings: CHO-K1 phospho-H2AX Ser139 HTRF, 3 h; activation (H2AX phosphorylation): at 154 µM (top of the series)
# Method in brief: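 Wild-type CHO-K1 cells, plated overnight, exposed 3hr at 37C to 15 concentrations (0.76% DMSO final). Lysed, then HTRF anti-pH2AX (S139) cryptate and anti-H2AX-d2 antibodies, 24 hr room temperature; 665/620 nm emission read.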
# [6] = A CellTox Green Cytotoxicity Assay to monitor cytotoxicity in HEK293 cells - 0 hour (AID 1224869); further: nearly all actives have a fitted effect of over 50% in size
# Method in brief: (§1)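 Tox21 screen in HEK293: membrane-impermeant cyanine dye fluoresces on binding dead-cell DNA; compound pinned 5 h post-seeding, plates held at 37 C, signal read repeatedly through 40 h.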
# [7] = A CellTox Green Cytotoxicity Assay to monitor cytotoxicity in HEK293 cells - 40 hour (AID 1224871); further: nearly all actives have a fitted effect of over 45% in size
# Method in brief: as §1
# [8] = qHTS RealTime-Glo MT Cell Viability Assay in HEK293 cells - 40 hour (AID 1224874); settings: RealTime-Glo luminescence; max response: stronger effect = lower value; further: nearly all actives have a fitted effect of over 50% in size
# Method in brief: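 HEK293 + NanoLuc + prosubstrate, 600 cells/well; 5 h, 37 C/5% CO2; compound 23 nL in DMSO by pintool; 37 C; luminescence read at 0, 8, 16, 24, 32 and 40 h time points.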
# [9] = target: Nuclear receptor subfamily 1 group I member 3 (Homo sapiens) (UniProt Q14994); experiment: qHTS assay to identify small molecule agonists of the constitutive androstane receptor (CAR) signaling pathway (AID 1224839); further: nearly all actives have a fitted effect of over 15% in size
# Method in brief: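 A 15-concentration quantitative screen uses HepG2 cells co-transfected stably with human CAR and CYP2B6-2.2kb reporter. Treatment lasts 24 h with 0.75 uM PK11195 final present; ONE-Glo luminescence is the signal.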
# [10] = qHTS assay to identify small molecule agonists of the hypoxia (HIF-1) signaling pathway (AID 1224846; active means well fitted activation curve with a large enough effect in the signal ratio in the repeat runs, not every such curve was filed as active; inconclusive means weak or mixed curves; the % refers to the signal ratio; on activation: on the % scale 0 is the no-effect control and ±100 the full control effect); settings: HRE-bla ME-180 cells, beta-lactamase ratio, 17 h; activation: at 76.8 µM (top of the series) unless noted
# Method in brief: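 Reporter induction in HRE-bla ME-180 cells is taken as agonism: cells sit 5 hrs after plating, receive compounds or DMSO only, incubate 17 hrs at 37C under 5% CO2, and are loaded with CCF4-AM for beta-lactamase FRET measurement.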
# [11] = qHTS assay to identify small molecule agonists of H2AX - cell viability counter screen (AID 1224847; calls by dose curve; further: nearly all actives have a fitted effect of over 30% in size)
# Method in brief: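 We seed wild-type CHO-K1 cells overnight, treat them for 3 hr at 37C with compounds in 15-concentration series, and quantify remaining viability by CellTiter-Glo luminescence.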
# [12] = qHTS RealTime-Glo MT Cell Viability Assay in HEK293 cells - 32 hour (AID 1224868); further: nearly all actives have a fitted effect of over 50% in size
# Method in brief: (§2)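 HEK293 cells seeded with NanoLuc/prosubstrate reagent, rested 5 h at 37 C, then dosed and kept at 37 C up to 40 h. Nonlytic real-time luminescence from viable cells read at 0, 8, 16, 24, 32 and 40 h.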
# [13] = qHTS RealTime-Glo MT Cell Viability Assay in HEK293 cells - 16 hour (AID 1224872); further: nearly all actives have a fitted effect of over 50% in size
# Method in brief: as §2
# [14] = qHTS RealTime-Glo MT Cell Viability Assay in HepG2 cells - 8 hour (AID 1224873); further: nearly all actives have a fitted effect of over 55% in size
# Method in brief: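 HepG2 cells (600/well) mixed with RealTime-Glo MT reagent, settled 5 h at 37 C/5% CO2 before compound addition. Nonlytic NanoLuc luminescence from viable-cell prosubstrate reduction read repeatedly during 40 h treatment at 37 C.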
# [15] = qHTS assay to identify small molecule antagonists of the estrogen related receptor signaling pathway with the pleiotropic PPARgamma coactivator (PGC) from Tox21 10K library (AID 1224841; call rule not given here)
# Method in brief: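 Test chemicals dissolved in DMSO were applied to pre-incubated (6 h) PGC/ERR cells at 2,000 cells/well for an 18 h, 37 C treatment; reporter luminescence was then read using One-Glo.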
# [16] = qHTS assay to identify small molecule antagonists of the estrogen related receptor (ERR) signaling pathway from Tox21 library (AID 1224848); further: nearly all actives have a fitted effect of over 50% in size
# Method in brief: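 Compounds dissolved in DMSO are pin-transferred onto ERR reporter cells (2,000 per well) that have settled for 6 h at 37 C. Plates then incubate 18 h at 37 C before ONE-Glo luciferase reagent and a luminescence read 30 min later.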
# Potency means the concentration at half of the fitted maximal effect; tags describe the fitted curve by direction and shape or compound fluorescence and quenching.
# Chain of UniProt Q14994 (Q14994 whole entry, looked up): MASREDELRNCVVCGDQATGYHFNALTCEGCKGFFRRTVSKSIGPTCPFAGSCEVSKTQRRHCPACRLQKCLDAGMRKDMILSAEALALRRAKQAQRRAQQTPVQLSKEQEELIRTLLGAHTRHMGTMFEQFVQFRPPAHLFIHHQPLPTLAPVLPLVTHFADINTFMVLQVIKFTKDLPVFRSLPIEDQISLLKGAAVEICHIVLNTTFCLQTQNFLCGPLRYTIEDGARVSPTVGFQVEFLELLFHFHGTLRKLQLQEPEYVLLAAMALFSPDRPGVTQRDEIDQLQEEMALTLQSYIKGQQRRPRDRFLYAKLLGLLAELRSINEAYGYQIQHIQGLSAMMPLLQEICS
# Chain of UniProt P16473 (P16473 whole entry, looked up): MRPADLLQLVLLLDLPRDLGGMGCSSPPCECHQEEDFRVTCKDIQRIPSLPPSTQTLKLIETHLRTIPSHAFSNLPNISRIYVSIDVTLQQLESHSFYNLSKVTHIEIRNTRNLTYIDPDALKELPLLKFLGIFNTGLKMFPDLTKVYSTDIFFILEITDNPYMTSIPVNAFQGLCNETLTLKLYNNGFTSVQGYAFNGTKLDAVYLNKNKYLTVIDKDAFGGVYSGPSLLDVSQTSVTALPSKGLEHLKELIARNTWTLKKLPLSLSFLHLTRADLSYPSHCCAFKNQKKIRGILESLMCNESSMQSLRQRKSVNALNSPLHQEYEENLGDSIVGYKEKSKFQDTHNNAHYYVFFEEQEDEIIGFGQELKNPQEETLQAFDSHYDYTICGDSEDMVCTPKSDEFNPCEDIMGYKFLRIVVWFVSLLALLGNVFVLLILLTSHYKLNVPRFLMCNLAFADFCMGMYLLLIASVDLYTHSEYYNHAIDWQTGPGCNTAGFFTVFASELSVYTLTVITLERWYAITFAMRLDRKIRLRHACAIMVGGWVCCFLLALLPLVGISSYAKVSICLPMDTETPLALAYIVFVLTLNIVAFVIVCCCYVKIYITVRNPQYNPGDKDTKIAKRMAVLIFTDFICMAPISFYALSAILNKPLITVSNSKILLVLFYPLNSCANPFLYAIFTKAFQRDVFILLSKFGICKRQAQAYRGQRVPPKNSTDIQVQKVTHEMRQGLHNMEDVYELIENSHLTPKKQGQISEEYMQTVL
compound,measurement,setting,value
c1cc(OCC2CO2)ccc1Cc1ccc(OCC2CO2)cc1 (stereo not drawn),Potency,[1],inactive
same,Potency,[2],"inconclusive: 68.9 µM [cytotoxic, partial curve, poor fit]"
same,Potency,[3],"inconclusive: 30.8 µM [inhibitor, partial curve, poor fit] and inactive"
same,Potency,[4],"inconclusive: 22 µM [cytotoxic, partial curve, poor fit] and inconclusive: 38.9 µM [cytotoxic, single point]"
same,Potency,[5],inconclusive: 113 µM [activator]
same,Potency,[6],"inconclusive: 55.2 µM [activator, partial curve, poor fit]"
same,Potency,[7],"inconclusive: 61.9 µM [activator, single point]"
same,Potency,[8],"inconclusive: 49.2 µM [cytotoxic, partial curve, poor fit]"
CCC(C)c1cc([N+](=O)[O-])cc([N+](=O)[O-])c1OC(=O)C=C(C)C (stereo not drawn),Potency,[1],"inconclusive: 77 µM [inhibitor, single point]"
same,Potency,[9],"inconclusive: 19.3 µM [activator, partial curve]"
same,Potency,[2],active: 30.6 µM
same,activation,[3],inconclusive: -28.6%
same,Potency,[5],"inconclusive: 101 µM [falling, single point]"
same,Potency,[10],"inconclusive: 43.6 µM [falling, partial curve]"
same,Potency,[11],active: 56.6 µM
same,Potency,[12],active: 21.9 µM
same,Potency,[13],active: 49 µM
same,Potency,[14],"inconclusive: 49 µM [falling, partial curve]"
same,Potency,[8],active: 21.9 µM
CC1(C)C(C(=O)OC(C#N)c2cccc(Oc3ccccc3)c2)C1(C)C (stereo not drawn),Potency,[1],"inconclusive: 77.5 µM [inhibitor, partial curve, poor fit]"
same,Potency,[15],"inconclusive: 54.4 µM [falling, partial curve]"
same,Potency,[3],"inconclusive: 30.9 µM [inhibitor, partial curve] and inconclusive: 15.3 µM [inhibitor, full curve]"
same,Potency,[11],"inconclusive: 128 µM [cytotoxic, single point] and inconclusive: 40.1 µM [cytotoxic, partial curve]"
same,Potency,[16],"inconclusive: 61.1 µM [inhibitor, single point]"
same,Potency,[12],"inconclusive: 22 µM [cytotoxic, partial curve]"
same,Potency,[7],inactive
same,Potency,[13],"inconclusive: 39.2 µM [cytotoxic, single point]"
same,Potency,[8],active: 22 µM
CCC(=O)O[C@H]1CC[C@H]2[C@@H]3CCC4=CC(=O)CC[C@]4(C)[C@H]3CC[C@]12C,Potency,[1],"inconclusive: 2.37 µM [inhibitor, full curve, poor fit]"
same,Potency,[2],"inconclusive: 68.6 µM [cytotoxic, single point]"
same,activation,[3],inconclusive: -1.52%
same,Potency,[10],inconclusive: 54.9 µM [single point] and inactive
same,Potency,[7],active: 19.5 µM and active: 21.3 µM
same,Potency,[14],"inconclusive: 54.9 µM [falling, partial curve, poor fit]"
CC(=O)[O][Hg][c]1ccccc1,Potency,[1],active: 2.41 µM and active: 4.33 µM and active: 5.31 µM
same,Potency,[2],active: 1.92 µM and active: 2.43 µM and active: 6.68 µM
same,Potency,[3],active: 2.71 µM and active: 770 nM and active: 9.44 µM
same,Potency,[4],active: 154 nM and active: 1.74 µM and active: 2.68 µM
same,Potency,[5],"inconclusive: 1.1 µM [activator, full curve]"
same,activation (H2AX phosphorylation),[5],inconclusive: 4.92% and inconclusive: 10.9%
same,Potency,[12],active: 306 nM and active: 977 nM and active: 239 nM
same,Potency,[7],active: 433 nM and active: 1.1 µM and active: 213 nM
same,Potency,[14],active: 1.93 µM and active: 1.74 µM and active: 1.07 µM
C=COC(C)=O,Potency,[1],inactive
Clc1ccc(COC(Cn2ccnc2)c2ccc(Cl)cc2Cl)cc1 (stereo not drawn),Potency,[1],"inconclusive: 57 µM [inhibitor, single point]"
same,Potency,[9],"inconclusive: 18 µM [activator, partial curve] and inconclusive: 24.2 µM [activator, single point]"
same,Potency,[11],"active: 66.6 µM and active: 56.4 µM and inconclusive: 55.2 µM [cytotoxic, single point]"
same,Potency,[12],active: 18.2 µM and active: 24.4 µM and active: 9.52 µM
same,Potency,[13],"active: 20.4 µM and active: 19.4 µM and inconclusive: 19 µM [cytotoxic, partial curve]"
same,Potency,[8],"inconclusive: 16.9 µM [cytotoxic, partial curve]"
CSc1nnc(C(C)(C)C)c(=O)n1N,Potency,[1],inactive
S=C=Nc1cccc2ccccc12,Potency,[1],"inconclusive: 76.2 µM [inhibitor, single point]"
same,Potency,[9],"inconclusive: 19.1 µM [activator, partial curve]"
same,Potency,[15],"inconclusive: 6.05 µM [falling, partial curve]"
same,activation,[3],inconclusive: 20.7%
same,Potency,[10],inconclusive: 54.4 µM [single point]
same,Potency,[11],"inconclusive: 112 µM [cytotoxic, single point]"
same,Potency,[16],"inconclusive: 67.9 µM [inhibitor, single point]"
